This note sets out measurements from PMC2602735.

Sequences of proteins named here, by UniProt entry; tags and fusion partners are left off. Residues count along the entry.
UniProt P08603, residues 19-1231: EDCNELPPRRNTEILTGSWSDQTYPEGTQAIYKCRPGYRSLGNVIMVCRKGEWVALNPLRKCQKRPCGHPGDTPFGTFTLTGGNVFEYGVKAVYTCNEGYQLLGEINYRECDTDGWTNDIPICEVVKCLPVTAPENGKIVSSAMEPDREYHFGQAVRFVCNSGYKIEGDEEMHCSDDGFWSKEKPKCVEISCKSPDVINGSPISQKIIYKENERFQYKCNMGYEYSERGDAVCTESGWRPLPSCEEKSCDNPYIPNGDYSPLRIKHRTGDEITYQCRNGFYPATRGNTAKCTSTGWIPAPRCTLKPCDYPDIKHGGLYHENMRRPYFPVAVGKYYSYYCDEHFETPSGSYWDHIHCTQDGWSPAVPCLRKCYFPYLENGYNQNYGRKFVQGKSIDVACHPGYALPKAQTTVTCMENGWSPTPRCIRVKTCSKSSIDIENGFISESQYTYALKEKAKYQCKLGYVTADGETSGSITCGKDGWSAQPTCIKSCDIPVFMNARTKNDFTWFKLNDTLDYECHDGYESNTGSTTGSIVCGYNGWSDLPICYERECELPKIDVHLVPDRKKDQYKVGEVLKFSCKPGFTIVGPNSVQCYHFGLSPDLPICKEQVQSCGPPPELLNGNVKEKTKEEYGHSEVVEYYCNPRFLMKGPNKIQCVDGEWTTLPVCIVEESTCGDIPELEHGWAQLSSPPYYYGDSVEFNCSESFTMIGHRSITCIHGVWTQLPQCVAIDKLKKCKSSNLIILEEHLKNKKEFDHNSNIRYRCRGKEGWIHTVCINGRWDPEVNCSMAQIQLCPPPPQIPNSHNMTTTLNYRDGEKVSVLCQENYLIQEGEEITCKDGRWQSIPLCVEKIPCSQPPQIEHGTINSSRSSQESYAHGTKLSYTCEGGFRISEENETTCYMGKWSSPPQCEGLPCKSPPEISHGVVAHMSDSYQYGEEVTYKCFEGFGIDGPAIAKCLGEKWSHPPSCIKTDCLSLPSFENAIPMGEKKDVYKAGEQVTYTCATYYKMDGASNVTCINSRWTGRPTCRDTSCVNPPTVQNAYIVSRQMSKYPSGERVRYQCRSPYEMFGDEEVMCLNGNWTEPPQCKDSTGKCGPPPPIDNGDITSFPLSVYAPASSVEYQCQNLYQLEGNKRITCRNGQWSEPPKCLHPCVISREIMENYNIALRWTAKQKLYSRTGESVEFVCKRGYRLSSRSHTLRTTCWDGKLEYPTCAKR
UniProt Q03591, residues 19-330: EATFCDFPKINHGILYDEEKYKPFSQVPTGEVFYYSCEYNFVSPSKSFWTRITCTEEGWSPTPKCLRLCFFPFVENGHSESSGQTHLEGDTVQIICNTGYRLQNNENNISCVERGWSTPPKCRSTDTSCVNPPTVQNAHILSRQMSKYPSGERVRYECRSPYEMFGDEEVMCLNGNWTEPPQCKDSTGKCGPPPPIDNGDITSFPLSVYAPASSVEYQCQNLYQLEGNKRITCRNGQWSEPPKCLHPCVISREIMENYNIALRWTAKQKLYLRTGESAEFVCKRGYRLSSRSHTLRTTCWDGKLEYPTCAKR

Results are given in words; binding and its absence hold for the method and conditions named. Some results given as binding are weak or reduced against the parent protein; the word gives no strength.

Assay [1] has as its target Sbi-I (amino acids 42–94) (Staphylococcus aureus (entry printed for strain Newman)) (UniProt A6QJQ7). The experiment in a line: combined ELISA and Western blot approach (CEWA); both purified. (In an ELISA, binding on a coated surface is turned into a signal by an enzyme label.)
Assay [2] shares this target. Kind of assay: combined ELISA and Western blot approach (CEWA); Sbi constructs, CRASP-1, CRASP-5 (10 µg/ml) immobilized; Factor H (5 µg/ml) together with C3b (10 µg/ml) or C3d (2,6 µg/ml), over night at 4°C; eluted, Western blot for Factor H; both purified.
Assay [3] shares this target. The experiment in a line: SPR; Biacore 3000; Sbi-E, Sbi-I or Sbi-III/IV immobilized; Factor H in combination with C3b or C3d as analyte, identical concentrations; both purified. (In general: SPR reads the build-up and loss of mass on a sensor chip optically.)
The target is the same in assay [4]. The experiment in a line: combined ELISA and Western blot approach (CEWA); only the target purified.
Assay [5] deals with Sbi-IV (amino acids 197–266) (Staphylococcus aureus (entry printed for strain Newman)) (UniProt A6QJQ7). The assay is described as above.
The target in assay [6] is Sbi-E (amino acids 28–266) (Staphylococcus aureus (entry printed for strain Newman)) (UniProt A6QJQ7). Described as above.

For the substance “complement Factor H (from UniProt P08603 19-1231)”, the binding result in assay [1] is given as “no binding (tested: 5 µg/ml)”; in assay [2], “no binding (tested: 5 µg/ml)”; in assay [3] it was “no binding”; in assay [4] it was “no binding (tested: NHS diluted 1∶10)”.
On to “Factor H related protein 1 (FHR-1) (from UniProt Q03591 19-330)”, for which the figures for the binding entry in assay [4], in assay [5] and in assay [6] were “no binding (tested: NHS diluted 1∶10)”, “binds” and “binds”, respectively.
